# This is one part of the list.
# Assays:
# HSkMC = human skeletal muscle cells; experiment: cytotoxicity call (relative viability < 0.9); conditions: 10 µM
# HepG2 = experiment: cytotoxicity call (relative viability < 0.9); conditions: 10 µM
# S. aureus RN4220 = experiment: growth inhibition call (relative growth <= 0.2); conditions: 50 µM
SMILES,cytotoxicity call (HSkMC),cytotoxicity call (HepG2),growth inhibition call (S. aureus RN4220)
CNC[C@@H]1Oc2cc(C#CCN(C)C)ccc2S(=O)(=O)N([C@H](C)CO)C[C@H]1C,inactive,inactive,inactive
COc1ccc(-c2cnc3c(c2)C(=O)N([C@H](C)CO)C[C@@H](C)[C@@H](CN(C)C(=O)Cc2cccnc2)O3)cc1,inactive,inactive,inactive
COc1ccc2c3c([nH]c2c1)[C@@H](CO)N(CC1CCCCC1)C[C@]13CN(C1)C(=O)Nc1cccc(c1)F,inactive,inactive,inactive
C[C@H](CO)N1C[C@H](C)[C@H](CN(C)C(=O)Nc2ccc3c(c2)OCO3)OCCCC[C@H](C)Oc2ccc(NS(=O)(=O)c3ccc(Cl)cc3)cc2C1=O,inactive,inactive,inactive
C[C@@H]1CCCCO[C@H](CN(C)C(=O)Cc2ccccc2)[C@@H](C)CN([C@@H](C)CO)C(=O)c2cc(NC(=O)Nc3ccc(F)cc3)ccc2O1,inactive,inactive,inactive
C[C@@H]1CN([C@H](C)CO)C(=O)c2cc(NC(=O)Cc3ccccc3)ccc2O[C@@H](C)CCCCO[C@H]1CN(C)C(=O)Nc1cccc2ccccc12,inactive,inactive,inactive
COc1ccc(NC(=O)N(C)C[C@@H]2OCCCC[C@@H](C)Oc3ccc(NS(=O)(=O)c4ccccc4)cc3C(=O)N([C@H](C)CO)C[C@@H]2C)cc1,inactive,inactive,inactive
C[C@H](CO)N1C[C@H](C)[C@@H](CN(C)C(=O)Nc2ccc(F)cc2)Oc2ccc(NC(=O)CCCCCC(=O)Nc3ccccc3N)cc2C1=O,inactive,inactive,inactive
C[C@H](CO)N1C[C@H](C)[C@H](CN(C)Cc2cccc(C(F)(F)F)c2)Oc2ncc(-c3cc4ccccc4o3)cc2C1=O,inactive,inactive,inactive
C=CCNC(=O)[C@H]1CCCN(S(C)(=O)=O)C1,inactive,inactive,inactive
Cc1cn([C@@H]2C[C@@H](O)[C@H](CO)O2)c(=O)[nH]c1=O,inactive,inactive,inactive
Cc1ccc(S(=O)(=O)N(C)C[C@@H]2OCCCC[C@H](C)Oc3ccc(NC(=O)Nc4ccc(F)cc4)cc3C(=O)N([C@H](C)CO)C[C@@H]2C)cc1,inactive,inactive,inactive
C[C@H]1CN([C@@H](C)CO)S(=O)(=O)c2ccc(Br)cc2O[C@@H]1CN(C)S(=O)(=O)c1ccccc1,inactive,inactive,inactive
C[C@@H]1CN([C@@H](C)CO)C(=O)c2cccc(NC(=O)c3ccc(-c4nccs4)cc3)c2O[C@H]1CN(C)Cc1ccc(C(=O)Nc2ccccc2N)cc1,inactive,inactive,inactive
COc1ccc(S(=O)(=O)N(C)C[C@@H]2OCCCC[C@@H](C)Oc3ccc(NS(=O)(=O)c4ccc(Cl)cc4)cc3C(=O)N([C@H](C)CO)C[C@H]2C)cc1,inactive,active,inactive
O=C(C[C@H]1CC[C@@H]2[C@H](COC[C@@H](O)CN2C(=O)c2ccncc2)O1)NC1CCC1,inactive,inactive,inactive
O=C(NCc1csnn1)c1csnn1,inactive,inactive,inactive
C[C@@H]1CN([C@H](C)CO)C(=O)c2cc(NS(C)(=O)=O)ccc2O[C@@H](C)CCCCO[C@H]1CN(C)S(=O)(=O)c1ccccc1,inactive,inactive,inactive
O=C(C[C@H]1CC[C@@H]2[C@H](COC[C@H](O)CN2Cc2ccccc2F)O1)N[C@@H]1CCN(Cc2ccccc2)C1,inactive,inactive,inactive
COc1ccc(S(=O)(=O)N(C)C[C@@H]2Oc3c(NC(=O)c4ccno4)cccc3C(=O)N([C@@H](C)CO)C[C@@H]2C)cc1,inactive,inactive,inactive
CC(C)CCC[C@@H](C)[C@H]1CC[C@H]2[C@@H]3CCC4=C/C(=N/O)CC[C@]4(C)[C@H]3CC[C@]12C,inactive,inactive,inactive
CC(C)NC(=O)N(C)C[C@H]1Oc2ncc(-c3ccc(C(=O)N(C)C)cc3)cc2C(=O)N([C@H](C)CO)C[C@H]1C,inactive,inactive,inactive
C[C@H]1CN([C@@H](C)CO)C(=O)Cc2cc(NC(=O)CCN3CCOCC3)ccc2O[C@H]1CN(C)C(=O)NC1CCCCC1,inactive,inactive,inactive
C[C@@H]1CN([C@H](C)CO)C(=O)Cc2cc(NC(=O)NC3CCCCC3)ccc2O[C@@H]1CN(C)C(=O)Nc1cccc2ccccc12,inactive,inactive,inactive
C[C@H](NC(=O)C[C@H]1CC[C@@H](NC(=O)CN2CCOCC2)[C@H](CO)O1)c1ccccc1,inactive,inactive,inactive
C[C@@H]1CN([C@@H](C)CO)C(=O)c2cc(NS(=O)(=O)c3cn(C)cn3)ccc2O[C@@H](C)CCCCO[C@H]1CN(C)S(=O)(=O)c1cn(C)cn1,inactive,inactive,inactive
C[C@H](CO)N1C[C@H](C)[C@H](CN(C)C(=O)Nc2ccccc2)OCCCC[C@H](C)Oc2ccc(NC(=O)Nc3ccc(F)cc3)cc2C1=O,inactive,inactive,inactive

# Source: the antibiotic and cytotoxicity screens of Wong et al. (2023)
